SMILES strings stand for the structures. The whole screen tested about 310,000 compounds, of which about 2,200 (0.71%) showed an effect of 50% or more. Effects have a minus sign here. The list shows a part of the results.

Results on 58 compounds are retold here after article PMC4336329 (PLoS ONE, 2015).

The target in the experiment is human ether-à-go-go-related gene (hERG) potassium channel (human, UniProt Q12809). The experiment is described as follows: primary screen, population patch clamp on CHO cells stably expressing hERG.
Chain of human ether-à-go-go-related gene (hERG) potassium channel (Q12809 whole entry, looked up): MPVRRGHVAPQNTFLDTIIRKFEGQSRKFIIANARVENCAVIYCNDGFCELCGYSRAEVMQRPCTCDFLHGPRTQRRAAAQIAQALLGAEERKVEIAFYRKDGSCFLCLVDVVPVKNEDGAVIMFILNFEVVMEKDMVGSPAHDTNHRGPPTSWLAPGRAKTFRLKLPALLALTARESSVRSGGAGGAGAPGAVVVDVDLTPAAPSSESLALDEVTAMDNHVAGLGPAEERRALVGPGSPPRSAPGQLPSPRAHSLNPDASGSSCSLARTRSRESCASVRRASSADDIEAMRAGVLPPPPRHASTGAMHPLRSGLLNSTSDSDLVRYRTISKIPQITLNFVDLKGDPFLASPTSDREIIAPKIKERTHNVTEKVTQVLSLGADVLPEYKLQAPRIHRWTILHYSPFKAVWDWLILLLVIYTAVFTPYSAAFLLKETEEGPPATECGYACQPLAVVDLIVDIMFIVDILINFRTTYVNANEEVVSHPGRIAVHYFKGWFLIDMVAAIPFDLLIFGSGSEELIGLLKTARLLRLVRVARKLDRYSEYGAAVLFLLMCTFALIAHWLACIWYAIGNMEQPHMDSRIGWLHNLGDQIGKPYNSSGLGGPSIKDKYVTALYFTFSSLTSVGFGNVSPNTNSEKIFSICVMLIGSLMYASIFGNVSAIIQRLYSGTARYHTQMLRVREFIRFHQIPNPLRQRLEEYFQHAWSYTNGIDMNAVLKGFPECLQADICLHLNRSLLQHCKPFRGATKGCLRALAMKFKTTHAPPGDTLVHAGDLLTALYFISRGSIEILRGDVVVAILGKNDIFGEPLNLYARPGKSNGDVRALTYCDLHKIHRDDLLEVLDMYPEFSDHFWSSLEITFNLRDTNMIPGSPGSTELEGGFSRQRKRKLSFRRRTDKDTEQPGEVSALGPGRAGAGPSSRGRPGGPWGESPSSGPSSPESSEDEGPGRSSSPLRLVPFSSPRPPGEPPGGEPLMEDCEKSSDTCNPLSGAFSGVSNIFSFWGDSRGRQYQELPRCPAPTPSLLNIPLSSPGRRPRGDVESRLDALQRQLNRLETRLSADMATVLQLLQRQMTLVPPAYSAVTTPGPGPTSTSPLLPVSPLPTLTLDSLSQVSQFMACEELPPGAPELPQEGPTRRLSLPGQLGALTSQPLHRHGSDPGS
For `N#Cc1c(-c2ccc(F)cc2)cc(-c2cccnc2)nc1N`, the “hERG current change (%, negative = inhibition) at 1uM” value is 9.44%.

Turning to `Cc1cc(NC(=O)c2coc(=O)c(Br)c2)ccc1C(C)C`, the “hERG current change (%, negative = inhibition) at 1uM” value was 9.1%.

For the compound `COC(=O)N/N=C/c1ccccc1Cl`, the “hERG current change (%, negative = inhibition) at 1uM” value came to 15%.

In the case of `CCCCN1C(=O)C(=O)N(CC(=O)Nc2cccc(C(C)=O)c2)C1=O`, the “hERG current change (%, negative = inhibition) at 1uM” value is reported as 4.58%.

Turning to `O=C(Nc1ccc(C(=O)N2CCCCC2)cc1)c1cccs1`, the “hERG current change (%, negative = inhibition) at 1uM” value is given as 10.3%.

For `COc1ccc(-c2nn(CCC(=O)O)cc2/C=C2\SC(N)=NC2=O)cc1`, the “hERG current change (%, negative = inhibition) at 1uM” value is on record as 7.09%.

In the case of `CC(C)N(Cc1ccccc1)C(=S)Nc1ccccc1F`, the “hERG current change (%, negative = inhibition) at 1uM” value worked out at 13.1%.

`CCSc1ncc(Cl)c(C(=O)Nc2ccccc2Cl)n1`: the “hERG current change (%, negative = inhibition) at 1uM” value was determined as 13.3%.

On to `CCOC(=O)c1c(C)[nH]c(C)c1S(=O)(=O)N(C)CC(=O)Nc1cccc(C)c1`, for which the “hERG current change (%, negative = inhibition) at 1uM” value is recorded as 10.4%.

`Cc1ccc(/C=N/Nc2ncnc3nc[nH]c23)cc1`: the “hERG current change (%, negative = inhibition) at 1uM” value is reported as -7.53%.

With `CC(C(=O)NC1CCCC1)N1C(=O)c2cccc3cccc1c23` (stereo not shown), the “hERG current change (%, negative = inhibition) at 1uM” value is 9.89%.

Regarding `O=C(N/N=C/C1CC=CCC1)c1cc2ccccc2cc1O` (stereo not shown), the “hERG current change (%, negative = inhibition) at 1uM” value was determined as 9.64%.

With `Cc1ccc(S(=O)(=O)N2CCCCC2)cc1C(=O)N1CCCCCC1`, the “hERG current change (%, negative = inhibition) at 1uM” value was 0.463%.

With `CCSc1nnc(-c2ccc(S(=O)(=O)N3CCOCC3)cc2)n1CC1CCCO1` (stereo not shown), the “hERG current change (%, negative = inhibition) at 1uM” value is recorded as 8.74%.

For the compound `CS(=O)(=O)c1ccc(Cl)c(C(=O)NCC2CCCCC2)c1`, the “hERG current change (%, negative = inhibition) at 1uM” value is given as 5.93%.

On to `Cc1nc(NC(=O)c2cc(-n3cnnc3)ccc2Cl)ccc1Br`, for which the “hERG current change (%, negative = inhibition) at 1uM” value is -3.11%.

With `COc1cccc(/C=C/C(=O)NNC(=O)c2cc(C)oc2C)c1`, the “hERG current change (%, negative = inhibition) at 1uM” value is 12.3%.

Turning to `O=c1[nH]c2ccccc2nc1NCc1ccccc1`, the “hERG current change (%, negative = inhibition) at 1uM” value came out at 12.3%.

As to `Cc1c(C(=O)Nc2nc3ccccc3[nH]2)oc2c(Cl)cccc12`, the “hERG current change (%, negative = inhibition) at 1uM” value turned out to be 15.5%.

In the case of `COc1ccccc1/C=C/C=C1\Oc2c(ccc(O)c2CN(C)C)C1=O`, the “hERG current change (%, negative = inhibition) at 1uM” value is -0.312%.

With `O=[N+]([O-])c1ccc(S(=O)(=O)NCC2CC3CCC2C3)cc1` (stereo not shown), the “hERG current change (%, negative = inhibition) at 1uM” value worked out at 7.7%.

Turning to `CCOc1ccc(CCNC(=O)CS(=O)Cc2nc(-c3ccc(OC)cc3)oc2C)cc1OCC` (stereo not shown), the “hERG current change (%, negative = inhibition) at 1uM” value is 11.8%.

Turning to `O=C(COc1ccc(Br)cc1Cl)NC1CCN(Cc2ccccc2)CC1`, the “hERG current change (%, negative = inhibition) at 1uM” value was -16.4%.

As to `O=c1cc(-c2ccccc2Cl)oc2ccc([N+](=O)[O-])c(O)c12`, the “hERG current change (%, negative = inhibition) at 1uM” value was 12.9%.

Take `Cc1[nH]n(-c2ccccc2)c(=O)c1C(C[N+](=O)[O-])c1ccccc1Cl` (stereo not shown): the “hERG current change (%, negative = inhibition) at 1uM” value is 16.6%.

For the compound `O=C1CCc2cc(S(=O)(=O)Nc3ccccc3F)ccc2N1`, the “hERG current change (%, negative = inhibition) at 1uM” value is listed as 4.61%.

For `CCC1(CC)NC(=O)N(CC(=O)OCn2nnc3ccccc3c2=O)C1=O`, the “hERG current change (%, negative = inhibition) at 1uM” value worked out at 12.4%.

As for `COC(=O)COc1cc(=O)oc2ccc(NS(=O)(=O)c3ccccc3)cc12`, the “hERG current change (%, negative = inhibition) at 1uM” value is reported as 14%.

As for `O=C(NC(Cc1ccccc1)C(=O)O)c1ccco1` (stereo not shown), the “hERG current change (%, negative = inhibition) at 1uM” value is 13%.

As for `COS(=O)(=O)[O-].Cc1ccc(S(=O)(=O)Cc2sc3ccccc3[n+]2C)cc1`, the “hERG current change (%, negative = inhibition) at 1uM” value is given as 7.62%.

Turning to `O=S(=O)(CCc1nc2ccccc2o1)c1ccc(Cl)c(Cl)c1`, the “hERG current change (%, negative = inhibition) at 1uM” value is recorded as 7.06%.

`FC(F)(F)c1cc(N2CCNCC2)c2ccccc2n1`: the “hERG current change (%, negative = inhibition) at 1uM” value worked out at 11.4%.

For the compound `O=C(Nc1ccc(F)cc1)c1nsc(Cl)c1Cl`, the “hERG current change (%, negative = inhibition) at 1uM” value was 9.66%.

As for `CCN(Cc1ccccc1)C(=O)C1CCN(C(=O)Nc2ccccc2)CC1`, the “hERG current change (%, negative = inhibition) at 1uM” value was found to be 3.54%.

In the case of `Cc1cc(-c2ccccc2)nc(N/N=C/c2ccc(O)cc2O)n1`, the “hERG current change (%, negative = inhibition) at 1uM” value is given as 9.59%.

`CCCCCCCC(=O)N/N=C(\C)c1ccc(O)cc1O`: the “hERG current change (%, negative = inhibition) at 1uM” value is -2.34%.

Consider `Cc1ccc(CCNC(=O)C2CC(=O)N(CCc3ccccc3)C2)cc1` (stereo not shown), for which the “hERG current change (%, negative = inhibition) at 1uM” value is listed as 15%.

Regarding `COc1ccc(OC)c(CNC(=O)C2CCC(=O)N2C(C)C)c1` (stereo not shown), the “hERG current change (%, negative = inhibition) at 1uM” value is 10.6%.

For the compound `O=C(Nc1ccccc1)N1CCCC1c1cccs1` (stereo not shown), the “hERG current change (%, negative = inhibition) at 1uM” value stood at 12.7%.

Take `Cc1ccc(-n2c(C)cc(/C=N/NC(=O)Cn3c4ccccc4c(=O)c4ccccc43)c2C)cc1`: the “hERG current change (%, negative = inhibition) at 1uM” value is recorded as 13.7%.

`CCCCn1nc(C(=O)N2CCN(S(=O)(=O)c3ccccc3)CC2)c2ccccc2c1=O`: the “hERG current change (%, negative = inhibition) at 1uM” value is 10.8%.

With `COc1ccccc1CNC(=O)COC(=O)CSc1ccc(F)cc1`, the “hERG current change (%, negative = inhibition) at 1uM” value worked out at 11.5%.

On to `Cc1ccc(C(=O)N2CC=C(c3ccccc3)CC2)s1`, for which the “hERG current change (%, negative = inhibition) at 1uM” value was determined as 9.07%.

For `Cn1c(=O)[nH]c(=O)c2c1nc(SCCO)n2CC(O)COc1ccccc1` (stereo not shown), the “hERG current change (%, negative = inhibition) at 1uM” value turned out to be 19.4%.

`O=c1c(CN2CCN(Cc3ccccc3)CC2)coc2ccc(Cl)cc12`: the “hERG current change (%, negative = inhibition) at 1uM” value came to 3.23%.

Turning to `COC(=O)c1cncn1C(C)c1ccccc1.Cl` (stereo not shown), the “hERG current change (%, negative = inhibition) at 1uM” value was found to be 13.9%.

Take `COc1ccc(C(=O)Oc2c(OC)cc(C(=S)N3CCOCC3)cc2OC)cc1`: the “hERG current change (%, negative = inhibition) at 1uM” value was determined as 11.4%.

With `Cc1csc2ncnc(N3CCN(C(=O)Nc4ccc(OC(F)(F)F)cc4)CC3)c12`, the “hERG current change (%, negative = inhibition) at 1uM” value is given as 0.933%.

As to `FC(F)(F)c1ccccc1CNCc1ccncc1`, the “hERG current change (%, negative = inhibition) at 1uM” value is on record as 11.6%.

For the compound `CNC(=O)c1ccc(Nc2nc(-c3ccccc3)nc3ccccc23)cc1`, the “hERG current change (%, negative = inhibition) at 1uM” value is listed as 16.1%.

On to `COc1cccc(NC(=O)C2CC(=O)N=C(N)S2)c1` (stereo not shown), for which the “hERG current change (%, negative = inhibition) at 1uM” value was found to be 11.4%.

As for `CCC1(C)CC(CCNCc2ccc(N(C)C)cc2)(c2ccc(F)cc2)CCO1` (stereo not shown), the “hERG current change (%, negative = inhibition) at 1uM” value worked out at 7.91%.

Consider `Cc1ccc(-c2cc(C(=O)NC3=NCCS3)c3cc(Br)ccc3n2)o1`, for which the “hERG current change (%, negative = inhibition) at 1uM” value came to 12.7%.

Regarding `Cc1ccc(S(=O)(=O)/N=C(/NC(=S)Nc2ccccc2)c2ccccc2)cc1`, the “hERG current change (%, negative = inhibition) at 1uM” value is 0.508%.

Turning to `O=C1CC(Nc2ccc(N3CCOCC3)cc2)C(=O)N1CCc1ccccc1` (stereo not shown), the “hERG current change (%, negative = inhibition) at 1uM” value came to 3.73%.

For `CCO[C@@H]1OC(C(=O)N2CCOCC2)=C[C@H](c2coc3ccccc3c2=O)[C@H]1CCCO`, the “hERG current change (%, negative = inhibition) at 1uM” value is on record as 6.91%.

`CCCOc1ccc(Cn2c(C)nc([N+](=O)[O-])c2SCC(O)COC)cc1[N+](=O)[O-]` (stereo not shown): the “hERG current change (%, negative = inhibition) at 1uM” value is given as -28%.

For `COCCN1C(=O)CS/C1=C(/C#N)C(=O)NCc1ccco1`, the “hERG current change (%, negative = inhibition) at 1uM” value was 2.38%.
